Out of some 370,000 compounds screened, about 150 (0.041%) were called active. The shares of active, inactive and inconclusive entries below differ from those in the screen. Calls come from the whole dose curve; as a rule, active = well fitted inhibition curve with a large enough effect; inconclusive = small, poorly fitted or top-dose-only effect; inactive = flat fitted curve, though single readings scatter. Potencies of inconclusive entries are left out as doubtful fits.
biological target: Beta-lactamase (Escherichia coli (strain K12)) (UniProt P00811); experiment: qHTS Inhibitors of AmpC Beta-Lactamase (assay with detergent); settings: AmpC hydrolysis of nitrocefin, absorbance 480 nm, 0.01% Triton; series mostly up to 114 µM; note: nearly all actives have a fitted effect of over 25% in size
In short: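 20 mM phosphate pH 7.0 + 0.01% (detergent screen) or 0.0001% Triton X-100; 5.3 nM AmpC reagent; cpd preinc 15 min RT; nitrocefin (800 uM stock) to start; A480 q20 s × 4 min; Activity was normalised to no-enzyme and no-compound control wells.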
Potency is the fitted concentration of half-maximal effect; tags give direction and shape of the fitted curve.

UniProt P00811, sequence (P00811 whole entry, looked up): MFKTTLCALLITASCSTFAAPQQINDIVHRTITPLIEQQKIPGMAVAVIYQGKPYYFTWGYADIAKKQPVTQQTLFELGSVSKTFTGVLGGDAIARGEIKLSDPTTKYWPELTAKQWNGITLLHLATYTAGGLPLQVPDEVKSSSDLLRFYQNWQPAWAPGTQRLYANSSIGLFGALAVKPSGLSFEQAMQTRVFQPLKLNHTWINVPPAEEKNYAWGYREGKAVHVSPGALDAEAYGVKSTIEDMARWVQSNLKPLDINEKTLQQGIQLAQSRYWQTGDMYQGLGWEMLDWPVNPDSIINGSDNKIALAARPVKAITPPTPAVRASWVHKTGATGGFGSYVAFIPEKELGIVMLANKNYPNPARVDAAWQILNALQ

Structure (SMILES)	Potency
Cn1ncc(C#N)c1/N=C/N1CCCC1	inconclusive [inhibitor, full curve, poor fit]
Cn1cnc2cc(NS(=O)(=O)c3ccc(Br)cc3)ccc21	inconclusive [inhibitor, full curve, poor fit]
Cc1cc(C(=O)Nc2c[nH]c(=O)[nH]c2=O)ccc1[N+](=O)[O-]	inconclusive [inhibitor, full curve]
COc1ccc(CCN=C(N)NS(=O)(=O)c2cccs2)cc1	inconclusive [inhibitor, single point]
Cc1cccc(NC(=O)CSCC(=O)OCc2ccccn2)c1	inconclusive [inhibitor, partial curve]
O=c1[nH]nc(Cc2ccccn2)c2ccccc12	inconclusive [inhibitor, partial curve, poor fit]
CC1(C)O[C@H]2OC([C@H](O)CON3C(=O)c4ccccc4C3=O)[C@H](O)[C@H]2O1 (some centres undefined)	inconclusive [inhibitor, partial curve, poor fit]
CCOc1ccc(NC(=O)N(C2CCCCCC2)C2CCN(C(C)=O)CC2)cc1	inactive
Cc1cccc(C2CN(C)CCc3c2cc(O)c(O)c3Cl)c1 (centres undefined)	inconclusive [inhibitor, full curve]
CC(C)[C@H](NC(=O)N1CCn2c1nc1ccccc12)C(=O)N[C@H](C(=O)O)c1ccccc1	inactive
COc1cc(/C=N\NC(=O)Cn2nnc3ccccc32)cc(OC)c1OC	inconclusive [inhibitor, full curve]
CCc1ccc(S(=O)(=O)Nc2ccncc2)cc1	inconclusive [inhibitor, full curve, poor fit]
O=C1CN(c2cc(Cl)cc(Cl)c2)C(=O)CN1/N=C/c1cccnc1	inactive
Cc1ccc(NC(=O)c2ccccc2OCc2c(C)noc2C)cc1S(=O)(=O)N(C)C	inconclusive [inhibitor, partial curve, poor fit]
COc1ccc(CNC(=O)N2CCN(c3ccc(F)cc3)CC2)cc1Cl	inconclusive [inhibitor, full curve, poor fit]
O=C(c1nnsc1S(=O)c1ccc(Cl)cc1)N1CCOCC1 (centres undefined)	inconclusive [inhibitor, single point]
COC(=O)c1ccccc1NC(=O)Nc1ccc2c(c1)OCO2	inactive
O=C1c2ccccc2C(=O)c2c1cccc2N(CCO)CCO	inactive
O=C(CSc1nc(-c2ccccc2)cn1-c1ccccc1F)Nc1ccc(F)cc1	inactive

Source: PubChem BioAssay AID485294 (National Center for Advancing Translational Sciences (NCATS), 2010)
